{"source": "paper PMC4336329", "about": "(PLoS ONE, 2015)", "note": "Among all 310,000 compounds or so, about 14,000 (4.5%) showed an effect of 50% or more. Effects have a minus sign here. Some of the results follow.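 Further: peak tail current of the secondary pulse compared with the same well before compound.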", "data": [{"target": "human ether-à-go-go-related gene (hERG) potassium channel (human, UniProt Q12809)", "sequence (Q12809 whole entry, looked up)": "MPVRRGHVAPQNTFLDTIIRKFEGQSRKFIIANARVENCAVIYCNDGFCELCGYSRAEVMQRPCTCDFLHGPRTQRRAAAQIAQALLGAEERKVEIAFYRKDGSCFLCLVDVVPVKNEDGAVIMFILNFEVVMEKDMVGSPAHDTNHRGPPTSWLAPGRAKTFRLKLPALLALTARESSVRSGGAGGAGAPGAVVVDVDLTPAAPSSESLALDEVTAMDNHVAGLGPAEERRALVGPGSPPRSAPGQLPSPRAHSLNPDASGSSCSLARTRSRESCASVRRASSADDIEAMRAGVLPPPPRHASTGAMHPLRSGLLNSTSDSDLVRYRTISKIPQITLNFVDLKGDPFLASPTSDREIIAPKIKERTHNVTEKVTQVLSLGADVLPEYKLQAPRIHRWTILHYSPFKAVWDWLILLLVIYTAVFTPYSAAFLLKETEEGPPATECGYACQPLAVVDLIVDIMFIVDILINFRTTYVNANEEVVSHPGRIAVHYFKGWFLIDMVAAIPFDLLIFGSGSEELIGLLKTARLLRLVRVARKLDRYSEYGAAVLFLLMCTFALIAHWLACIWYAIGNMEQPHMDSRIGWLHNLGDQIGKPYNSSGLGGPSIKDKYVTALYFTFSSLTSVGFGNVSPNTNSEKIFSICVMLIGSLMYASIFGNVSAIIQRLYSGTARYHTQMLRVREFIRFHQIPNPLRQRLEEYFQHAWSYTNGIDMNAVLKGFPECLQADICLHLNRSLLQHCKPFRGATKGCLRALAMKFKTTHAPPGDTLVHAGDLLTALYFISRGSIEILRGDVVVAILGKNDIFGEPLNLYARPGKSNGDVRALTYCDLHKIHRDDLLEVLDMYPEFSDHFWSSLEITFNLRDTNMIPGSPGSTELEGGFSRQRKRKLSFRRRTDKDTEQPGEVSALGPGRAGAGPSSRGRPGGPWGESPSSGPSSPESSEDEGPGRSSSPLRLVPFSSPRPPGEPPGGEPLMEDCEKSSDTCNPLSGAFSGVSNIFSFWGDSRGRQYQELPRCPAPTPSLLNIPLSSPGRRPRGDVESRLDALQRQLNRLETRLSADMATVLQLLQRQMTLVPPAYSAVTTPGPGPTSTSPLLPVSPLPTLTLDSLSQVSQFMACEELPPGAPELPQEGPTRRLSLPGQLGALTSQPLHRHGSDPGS", "assay": "primary screen, population patch clamp on CHO cells stably expressing hERG", "units": {"hERG current change (%, negative = inhibition) at 10uM": "%"}, "values": [{"smiles": "COC(=O)[C@H](CC(C)C)NC(=O)N1CCCCC1C", "note": "(stereo partly shown)", "hERG current change (%, negative = inhibition) at 10uM": 9.52}, {"smiles": "NC(=O)CSc1nccn1Cc1ccc(Cl)cc1", "hERG current change (%, negative = inhibition) at 10uM": 19.1}, {"smiles": "Cc1nnc(NC(=O)CSc2nc3ccccc3[nH]2)s1", "hERG current change (%, negative = inhibition) at 10uM": 34.1}, {"smiles": "COc1ccccc1C(=O)Nc1nc(-c2ccc(S(=O)(=O)N3CCOCC3)cc2)cs1", "hERG current change (%, negative = inhibition) at 10uM": 9.59}, {"smiles": "CC(C)(C)OC(=O)CN1C(=O)NC(Cc2c[nH]c3ccccc23)C1=O", "note": "(stereo not shown)", "hERG current change (%, negative = inhibition) at 10uM": 12.8}, {"smiles": "CC(CCc1ccccc1)NCC(O)c1cccc([N+](=O)[O-])c1.Cl", "note": "(stereo not shown)", "hERG current change (%, negative = inhibition) at 10uM": -56.2}, {"smiles": "CCC(CC)C(=O)NCc1ccc2c(c1)cc(C)n2C", "hERG current change (%, negative = inhibition) at 10uM": -8.89}, {"smiles": "CC(=O)OC1CCC2(C)C(COc3ccc4ccc(=O)oc4c3)C(C)(O)CCC2C1(C)C", "note": "(stereo not shown)", "hERG current change (%, negative = inhibition) at 10uM": -29.4}, {"smiles": "OC1(c2ccc(F)cc2)CCN(Cc2cccnc2)CC1", "hERG current change (%, negative = inhibition) at 10uM": 4.22}, {"smiles": "CC(=O)N(Cc1ccccc1)Cc1cn(CCC#N)nc1-c1cccc([N+](=O)[O-])c1", "hERG current change (%, negative = inhibition) at 10uM": -33}, {"smiles": "CC(C)(C)C1CCC(C(=O)Nc2nccs2)CC1", "note": "(stereo not shown)", "hERG current change (%, negative = inhibition) at 10uM": 9.99}, {"smiles": "Cc1cccc(N/N=C/c2ccc(O)c(O)c2O)c1", "hERG current change (%, negative = inhibition) at 10uM": 4.77}, {"smiles": "COc1cccc(/C=C/C(=O)Nc2ccc3c(c2)OCCO3)c1OC", "hERG current change (%, negative = inhibition) at 10uM": -3.49}, {"smiles": "CC1(CCc2ccccc2)NC(=O)N(Cc2nnc(-c3ccccc3Br)o2)C1=O", "note": "(stereo not shown)", "hERG current change (%, negative = inhibition) at 10uM": -26}, {"smiles": "CN(C)CCNC(=O)CCCNC(=O)Cn1cnc2sc3c(c2c1=O)CCCC3", "hERG current change (%, negative = inhibition) at 10uM": 4.71}, {"smiles": "CCOC(=O)[C@H]1[C@H]2COc3cc(OC)ccc3[C@@H]2N2C(=O)CN(CCc3c[nH]c4ccccc34)C(=O)[C@@]12C", "hERG current change (%, negative = inhibition) at 10uM": -1.64}, {"smiles": "O=c1oc(-c2ccccc2)nc2c1cnn2-c1ccccc1", "hERG current change (%, negative = inhibition) at 10uM": 8.89}, {"smiles": "Cc1nnc(SCC(=O)Nc2ccccc2F)n(N)c1=O", "hERG current change (%, negative = inhibition) at 10uM": 5.7}, {"smiles": "CSc1ccccc1C(=O)NC1CCCN(c2ccc(C(F)(F)F)cn2)C1", "note": "(stereo not shown)", "hERG current change (%, negative = inhibition) at 10uM": -4.58}, {"smiles": "CCOc1ncccc1C(=O)Nc1ccccc1F", "hERG current change (%, negative = inhibition) at 10uM": 1.07}, {"smiles": "Cc1ccc2oc(C(=O)N(C)CCC(O)c3ccccc3)c(C)c2c1", "note": "(stereo not shown)", "hERG current change (%, negative = inhibition) at 10uM": 11.5}, {"smiles": "O=C(NCc1ccc(F)cc1)C(c1ccc(F)cc1)N(C(=O)c1csnn1)C1CC1", "note": "(stereo not shown)", "hERG current change (%, negative = inhibition) at 10uM": 9.3}, {"smiles": "CCN(c1cccc(C)c1)S(=O)(=O)c1nnc(NC(=O)c2ccco2)s1", "hERG current change (%, negative = inhibition) at 10uM": 3.8}, {"smiles": "Cc1cccn2c(=O)c(/C=C(\\C#N)C(=O)NCc3ccco3)c(N3CCCCC3)nc12", "hERG current change (%, negative = inhibition) at 10uM": -37.8}, {"smiles": "OCCSc1nc2ccccc2n1CCOc1ccccc1", "hERG current change (%, negative = inhibition) at 10uM": 4.02}, {"smiles": "Cn1cnnc1SCC(=O)Nc1ccccc1C(=O)NC1CCCC1", "hERG current change (%, negative = inhibition) at 10uM": 11.8}, {"smiles": "CC(=O)N1CCc2cc(S(=O)(=O)NC(CC(C)C)C(=O)N3CCCC3)ccc21", "note": "(stereo not shown)", "hERG current change (%, negative = inhibition) at 10uM": -20.2}, {"smiles": "Cc1ccc(S(=O)(=O)N2CCCCC2)cc1NC(=O)c1cc2ccccc2o1", "hERG current change (%, negative = inhibition) at 10uM": -7.85}, {"smiles": "Cc1ccc(-n2c(CNc3ccc(F)cc3)nnc2SCC(=O)NCc2ccco2)cc1", "hERG current change (%, negative = inhibition) at 10uM": -40.8}, {"smiles": "O=C(NCCS(=O)(=O)N1CCN(c2ccccc2)CC1)C1CC(=O)N(c2ccc(F)cc2)C1", "note": "(stereo not shown)", "hERG current change (%, negative = inhibition) at 10uM": -1.02}, {"smiles": "O=C(Nc1ccn(Cc2c(F)c(F)cc(F)c2F)n1)c1ccc(COc2cc(Cl)ccc2Cl)o1", "hERG current change (%, negative = inhibition) at 10uM": 6.83}, {"smiles": "COCCCNC(=O)COc1ccc(Cl)c(C)c1", "hERG current change (%, negative = inhibition) at 10uM": -7.29}, {"smiles": "O=C(OCC(=O)N1CCCC1)c1cc([N+](=O)[O-])ccc1Cl", "hERG current change (%, negative = inhibition) at 10uM": 13.7}, {"smiles": "O=C(Nc1ccc(C(=O)N2CCCC2)cc1)c1ccc2c(c1)OCO2", "hERG current change (%, negative = inhibition) at 10uM": -0.403}, {"smiles": "CN(Cc1ccccc1)C(=O)c1nc2ccccn2c1CNCCCOc1cccnc1", "hERG current change (%, negative = inhibition) at 10uM": -52.3}, {"smiles": "COc1ccc(Cn2cc(F)c(=O)n(C)c2=O)cc1[N+](=O)[O-]", "hERG current change (%, negative = inhibition) at 10uM": 11.1}, {"smiles": "CCCN(CC(=O)Nc1cc(Cl)ccc1Cl)C(=O)CN1C(=O)C2CCCCC2C1=O", "note": "(stereo not shown)", "hERG current change (%, negative = inhibition) at 10uM": -22.5}, {"smiles": "COc1ccccc1NC(=O)/C=C1\\SCC(=O)N1C", "hERG current change (%, negative = inhibition) at 10uM": -21}, {"smiles": "Cn1c(=O)c2c(nc(NCCNC(=O)c3ccco3)n2Cc2ccccc2F)n(C)c1=O", "hERG current change (%, negative = inhibition) at 10uM": -1.1}, {"smiles": "COc1ccc(NC(=O)C2CCN(S(=O)(=O)c3ccc4c(c3)NC(=O)CO4)CC2)cc1", "hERG current change (%, negative = inhibition) at 10uM": 18.4}, {"smiles": "O=C(O)c1cc(/C=C/c2ccc(N3CCOCC3)cc2)nc2ccccc12", "hERG current change (%, negative = inhibition) at 10uM": 1.81}, {"smiles": "COc1ccc(C(=O)N/C(=C\\c2cccc3ccccc23)C(=O)NCCc2c[nH]c3ccccc23)cc1OC", "hERG current change (%, negative = inhibition) at 10uM": 0.726}, {"smiles": "CCOc1nc(-c2ccccc2)ccc1-c1noc(COC)n1", "hERG current change (%, negative = inhibition) at 10uM": 9.23}, {"smiles": "COc1ccccc1C(=O)NC(CCSC)C(=O)NCc1ccccn1", "note": "(stereo not shown)", "hERG current change (%, negative = inhibition) at 10uM": 0.0482}, {"smiles": "CC1CC(=O)C2=C(C1)Nc1ccccc1N(C(=O)COc1ccccc1)C2c1ccco1", "note": "(stereo not shown)", "hERG current change (%, negative = inhibition) at 10uM": -15.1}, {"smiles": "COc1ccc(Cl)cc1C(=O)Nc1cccc(-c2ccc3nncn3n2)c1", "hERG current change (%, negative = inhibition) at 10uM": 4.13}, {"smiles": "Cc1nn(Cc2ccccc2)c(C)c1NC(=O)CCCn1nc([N+](=O)[O-])cc1C", "hERG current change (%, negative = inhibition) at 10uM": -9.35}, {"smiles": "COc1ccccc1CN=C1Nc2ccccc2CS1", "hERG current change (%, negative = inhibition) at 10uM": -6.26}, {"smiles": "Cc1ccccc1N=C1SC(CC(=O)Nc2ccc3ccccc3c2)C(=O)N1Cc1ccccn1", "note": "(stereo not shown)", "hERG current change (%, negative = inhibition) at 10uM": 11.1}, {"smiles": "COc1ccc2c(c1)C(SCC(=O)NCc1ccccc1)CC(C)(C)O2", "note": "(stereo not shown)", "hERG current change (%, negative = inhibition) at 10uM": -17.5}, {"smiles": "CC(C)C(=O)NNS(=O)(=O)c1ccccc1[N+](=O)[O-]", "hERG current change (%, negative = inhibition) at 10uM": 3.1}, {"smiles": "O=C(Cc1cn2ccsc2n1)OCc1nc2ccccc2s1", "hERG current change (%, negative = inhibition) at 10uM": 2.43}, {"smiles": "Cc1cccc(N/C(=N/S(=O)(=O)c2ccccc2)c2ccccc2)n1", "hERG current change (%, negative = inhibition) at 10uM": -24.9}, {"smiles": "Cc1ccc2nc(-c3cccnc3)c(Nc3ccccc3C)n2c1", "hERG current change (%, negative = inhibition) at 10uM": 15.9}, {"smiles": "O=C(Nc1nc2ccc(S(=O)(=O)N3CCCCC3)cc2s1)c1cccnc1", "hERG current change (%, negative = inhibition) at 10uM": -26.9}]}]}
